According to the supplement of paper PMC12217912:
The list shows a part of the results. The full chains were built here from the parent and the listed change. Values near 0.05 are background.

B1: TEV protease; numbered along this chain (parent)
chain: MGESLFKGPRDYNPISSSICHLTNESDGHTTSLYGIGFGPFIITNKHLFRRNNGTLVVQSLHGVFKVKDTTTLQQHLVDGRDMIIIRMPKDFPPFPQKLKFREPQREERICLVTTNFQTKSMSSMVSDTSCTFPSGDGIFWKHWIQTKDGQCGSPLVSTRDGFIVGIHSASNFTNTNNYFTSVPKNFMELLTNQEAQQWVSGWRLNADSVLWGGHKVFMVKPEEPFQPVKEATQL

Variants of: B1
Experiment: raw area under fraction-flipped curve 0-4 h after induction (AUC4h, not background-subtracted), DNA-recorder readout of cleavage of the substrate (dimensionless); higher = more cleavage of the substrate by the protease variant
Settings: temperature: 34 °C; time window: 0-4 h after rhamnose induction
Description: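 In vivo DNA recorder in E. coli TOP10(DE3) ΔrhaA at 34 °C. Each TEVp single-site mutant (parent TEVp 0) is paired with a single-site variant of the 7-mer TEVs (canonical ENLYFQ|S). The substrate sits between flexible linkers in a Bxb1-sfGFP-TEVs-SsrA fusion, so cleavage stabilises Bxb1 and speeds flipping of a recombination array, read by NGS. The value is the raw area under the fraction-flipped curve over 0-4 h after rhamnose induction (AUC4h), with ≥20 reads per time point. It is not background-subtracted; inactive controls average about 0.047.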
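Also: Bxb1 expression induced with 0.2% (w/v) L-rhamnose at OD600 near 0.5, cultures sampled hourly, flipped fraction per protease–substrate barcode pair counted by paired-end Illumina sequencing.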

Row | Variant | area with substrate DNLYFQS | area with substrate GNLYFQS | area with substrate HNLYFQS | area with substrate INLYFQS | area with substrate KNLYFQS | area with substrate LNLYFQS | area with substrate MNLYFQS | area with substrate NNLYFQS | area with substrate PNLYFQS | area with substrate SNLYFQS | area with substrate TNLYFQS | area with substrate WNLYFQS | area with substrate YNLYFQS | area with substrate QNLYFQS | area with substrate RNLYFQS | area with substrate VNLYFQS | area with substrate FNLYFQS
1 | G2P | 0.0851 | 0.0913 | 0.0629 | 0.0952 | 0.0547 | 0.0668 | 0.0666 | 0.0696 | 0.078 | 0.0538 | 0.082 | 0.064 | 0.0694 |  |  |  | 
2 | G2W | 0.141 | 0.059 | 0.071 |  |  | 0.0797 |  |  |  | 0.0745 | 0.0776 | 0.0574 |  |  |  |  | 
3 | T30H | 0.0814 | 0.0688 | 0.0577 | 0.0609 | 0.0653 | 0.0553 | 0.063 | 0.0664 | 0.0717 | 0.0669 | 0.072 | 0.0585 | 0.0578 | 0.0676 | 0.058 | 0.0752 | 
4 | T30M | 0.0781 |  | 0.0603 | 0.0541 | 0.0641 |  | 0.0624 | 0.0645 | 0.0668 | 0.0736 | 0.0628 | 0.0548 | 0.0696 | 0.079 |  | 0.0669 | 0.053
5 | G37D | 0.0221 |  | 0.0506 |  | 0.0483 |  | 0.0428 |  | 0.0305 |  |  | 0.0401 | 0.0469 |  |  | 0.0507 | 
6 | F49L | 0.0492 |  | 0.0442 |  | 0.0587 | 0.0531 | 0.0439 | 0.041 |  |  |  | 0.006 |  |  |  |  | 
7 | I15R | 0.0606 |  | 0.0433 |  |  | 0.0519 |  |  |  |  | 0.0615 |  |  |  |  |  | 
8 | G35H | 0.0544 |  |  | 0.0519 |  |  |  |  | 0.0464 |  |  |  | 0.0185 | 0.058 |  | 0.0215 | 
9 | G35Y | 0.0146 |  | 0.049 |  | 0.047 |  |  |  | 0.0397 |  |  | 0.0429 |  |  |  |  | 0.0241
10 | G35F | 0.0411 |  |  |  | 0.0394 |  |  |  | 0.0321 |  | 0.035 |  | 0.0401 |  |  |  | 
11 | H47T | 0.0602 | 0.0501 | 0.0641 |  |  |  | 0.0581 |  |  | 0.0584 | 0.0624 | 0.0591 | 0.0549 |  |  |  | 
12 | K7F | 0.106 |  |  |  |  |  |  |  |  |  | 0.0645 |  |  |  |  |  | 
13 | K7T | 0.086 |  | 0.0524 |  |  |  |  | 0.0748 |  | 0.0469 |  | 0.0879 |  |  | 0.0752 |  | 
14 | K7R | 0.0711 |  |  |  |  |  |  |  |  |  |  |  |  |  |  | 0.0564 | 
15 | D27I | 0.0689 | 0.0444 | 0.0495 |  | 0.0534 | 0.0598 | 0.0526 |  | 0.0555 | 0.0655 | 0.0574 | 0.0525 | 0.0638 | 0.0682 |  | 0.0626 | 0.0786
16 | D27F | 0.0668 |  |  | 0.0616 | 0.0491 |  | 0.0813 | 0.089 | 0.045 | 0.0396 | 0.0497 | 0.0545 |  |  |  |  | 0.0564
17 | F6C | 0.0792 |  |  |  |  |  | 0.0613 | 0.0559 | 0.068 | 0.0508 | 0.0551 | 0.049 |  |  |  |  | 
18 | F6E | 0.0681 |  | 0.0527 |  | 0.0689 | 0.0695 |  | 0.0618 |  |  |  |  |  |  | 0.0729 |  | 
19 | Y12T | 0.0637 | 0.0951 |  |  |  |  | 0.0655 | 0.0679 | 0.0703 |  | 0.0648 | 0.0595 | 0.0704 |  | 0.0178 | 0.0754 | 0.0634

Row | Variant | area with substrate DNLYFQS | area with substrate GNLYFQS | area with substrate HNLYFQS | area with substrate INLYFQS | area with substrate KNLYFQS | area with substrate LNLYFQS | area with substrate MNLYFQS | area with substrate NNLYFQS | area with substrate PNLYFQS | area with substrate SNLYFQS | area with substrate TNLYFQS | area with substrate WNLYFQS | area with substrate YNLYFQS | area with substrate QNLYFQS | area with substrate RNLYFQS | area with substrate VNLYFQS | area with substrate FNLYFQS
20 | I36G | 0.0217 | 0.0317 |  |  |  |  |  |  |  |  | 0.0336 |  |  |  |  |  | 
21 | E3K | 0.119 |  | 0.0433 |  |  |  |  | 0.0752 | 0.0762 |  | 0.0316 | 0.0706 | 0.0695 |  | 0.0656 | 0.0189 | 
22 | L5I | 0.127 |  | 0.0658 |  |  |  | 0.0723 |  | 0.0717 |  | 0.0736 | 0.0719 |  |  |  |  | 
23 | N24I | 0.0854 | 0.0694 | 0.0646 | 0.06 |  | 0.0686 | 0.0541 | 0.0661 | 0.0641 | 0.0716 | 0.062 | 0.0591 | 0.0607 |  |  |  | 
24 | P14F | 0.0469 |  | 0.074 | 0.0522 | 0.0461 | 0.0599 | 0.0698 | 0.0652 | 0.0678 | 0.0682 | 0.0596 | 0.0524 | 0.0682 | 0.067 |  |  | 
25 | T23F | 0.0645 |  | 0.053 | 0.0725 | 0.0698 | 0.0633 |  |  | 0.0419 |  | 0.0757 | 0.0718 | 0.0534 | 0.0488 |  | 0.0548 | 
26 | P9D | 0.0673 |  | 0.0733 |  |  |  |  | 0.0627 | 0.0711 | 0.0648 | 0.0655 | 0.0644 |  |  | 0.0711 |  | 
27 | P9S | 0.0847 | 0.0506 | 0.078 |  | 0.0563 |  |  |  | 0.0678 |  | 0.0611 | 0.0574 | 0.0608 |  |  |  | 
28 | P9T | 0.0838 | 0.0721 | 0.0753 |  |  |  |  |  | 0.0756 |  |  |  |  |  |  |  | 
29 | Y34T | 0.0528 | 0.0532 | 0.0652 | 0.0573 | 0.065 |  | 0.069 | 0.0855 | 0.069 |  |  | 0.0563 | 0.0471 | 0.043 |  | 0.0568 | 
30 | Y34P | 0.0491 |  |  |  | 0.0583 |  | 0.0657 |  | 0.0528 | 0.0509 | 0.0619 | 0.0642 | 0.063 |  |  |  | 0.0445
31 | Y34M | 0.0771 |  | 0.0585 |  |  |  | 0.0663 | 0.0547 |  | 0.0649 | 0.061 |  | 0.0474 |  |  |  | 0.0454
32 | I19D | 0.0438 | 0.0517 | 0.0464 | 0.0347 | 0.048 | 0.0255 | 0.0456 | 0.0474 | 0.0463 | 0.0673 | 0.0388 | 0.0503 |  |  | 0.0437 | 0.0444 | 0.0345
33 | T31Y | 0.0752 |  | 0.0498 |  |  | 0.0816 |  |  | 0.0745 | 0.065 | 0.0688 | 0.06 | 0.063 |  |  | 0.0499 | 0.0654
34 | L33A | 0.0576 |  |  |  | 0.0951 |  | 0.0686 |  |  | 0.0888 | 0.0682 |  |  |  |  |  | 
35 | F38S | 0.0551 | 0.0579 | 0.0528 |  |  | 0.0514 | 0.0594 |  | 0.0608 | 0.0555 | 0.041 | 0.0524 | 0.066 |  |  |  | 
36 | F41M | 0.0787 | 0.0616 | 0.0596 |  | 0.0539 | 0.0569 | 0.0725 |  | 0.0433 | 0.0964 | 0.0629 | 0.0732 | 0.0628 | 0.0643 |  |  | 
37 | R10A | 0.0766 |  |  |  |  | 0.0683 | 0.0563 | 0.0598 |  | 0.0649 | 0.106 | 0.056 | 0.0652 |  | 0.0732 | 0.0765 | 
38 | S26I | 0.0657 | 0.0757 | 0.0629 | 0.047 |  | 0.065 | 0.0841 |  | 0.0578 |  |  | 0.0501 | 0.0599 |  | 0.0529 | 0.06 | 0.0526
